{"source": "the supplement of paper PMC6531468", "note": "This is one part of the list. Read counts after selection give these values, which scatter widely. Each score is taken over the longer molecules that contain the sequence shown."}
{"test_system": "IMP3 KH1-2", "sequence (chain, as listed by the source)": "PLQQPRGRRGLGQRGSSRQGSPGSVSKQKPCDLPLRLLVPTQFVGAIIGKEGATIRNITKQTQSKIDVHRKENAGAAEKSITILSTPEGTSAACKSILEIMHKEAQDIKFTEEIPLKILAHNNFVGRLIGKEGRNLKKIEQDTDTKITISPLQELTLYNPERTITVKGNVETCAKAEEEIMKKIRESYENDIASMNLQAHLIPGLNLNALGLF", "experiment": "6-mer SELEX enrichment z-score vs GST control; IMP3 is the RNA-binding protein IGF2BP3; higher = more enriched by binding", "settings": "construct: KH1-2 (164-376); SELEX round: R4", "method": "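SELEX-seq with GST-tagged IMP3 KH1-2 (Pro164-Phe376) and an N40 RNA pool, round 4 (stringent 300/600 mM KCl washes). 6-mer z-score of sequence-tag enrichment normalised to the corresponding GST SELEX round; RNA k-mers written as DNA (T for U).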"}
{"sequence": "GACACC", "6-mer SELEX enrichment z-score": -0.974}
{"sequence": "GGGTAC", "6-mer SELEX enrichment z-score": -0.226}
{"sequence": "CTAAAT", "6-mer SELEX enrichment z-score": 0.264}
{"sequence": "CTATAC", "6-mer SELEX enrichment z-score": 0.799}
{"sequence": "GGTGGC", "6-mer SELEX enrichment z-score": 0.705}
{"sequence": "TCATGT", "6-mer SELEX enrichment z-score": 0.481}
{"sequence": "AACAAG", "6-mer SELEX enrichment z-score": -0.248}
{"sequence": "ACTCTT", "6-mer SELEX enrichment z-score": 0.048}
{"sequence": "GGAGTC", "6-mer SELEX enrichment z-score": 0.589}
{"sequence": "AGGGGC", "6-mer SELEX enrichment z-score": 1.35}
{"sequence": "TGAAGG", "6-mer SELEX enrichment z-score": 0.3}
{"sequence": "GTAGAG", "6-mer SELEX enrichment z-score": -0.427}
{"sequence": "AGTACG", "6-mer SELEX enrichment z-score": -0.11}
{"sequence": "GGGTTA", "6-mer SELEX enrichment z-score": 0.222}
{"sequence": "GTAGAA", "6-mer SELEX enrichment z-score": -0.858}
{"sequence": "AGGCGT", "6-mer SELEX enrichment z-score": -0.802}
{"sequence": "AATGAG", "6-mer SELEX enrichment z-score": -0.948}
{"sequence": "AAAACC", "6-mer SELEX enrichment z-score": -2.39}
{"sequence": "TTAGTA", "6-mer SELEX enrichment z-score": 0.07}
{"sequence": "AGGGCC", "6-mer SELEX enrichment z-score": -0.126}
{"sequence": "CTCATT", "6-mer SELEX enrichment z-score": 0.657}
{"sequence": "TCACGT", "6-mer SELEX enrichment z-score": -0.312}
{"sequence": "TGAGTG", "6-mer SELEX enrichment z-score": -0.971}
{"sequence": "CGCGTG", "6-mer SELEX enrichment z-score": -1.35}
{"sequence": "GGTTCC", "6-mer SELEX enrichment z-score": -0.307}
{"sequence": "TTTTGG", "6-mer SELEX enrichment z-score": -0.042}
{"sequence": "CGTCGA", "6-mer SELEX enrichment z-score": -0.927}
{"sequence": "GGGGGA", "6-mer SELEX enrichment z-score": 1.62}
{"sequence": "CCGGTA", "6-mer SELEX enrichment z-score": -0.422}
{"sequence": "TACCCC", "6-mer SELEX enrichment z-score": -0.447}
{"sequence": "CGCCCC", "6-mer SELEX enrichment z-score": 0.379}
{"sequence": "CATCCG", "6-mer SELEX enrichment z-score": -0.095}
{"sequence": "GAAGGG", "6-mer SELEX enrichment z-score": 0.797}
{"sequence": "TTCGAA", "6-mer SELEX enrichment z-score": -0.733}
{"sequence": "TTACGG", "6-mer SELEX enrichment z-score": 0.367}
{"sequence": "CGAGCT", "6-mer SELEX enrichment z-score": -1.48}
{"sequence": "AACGGG", "6-mer SELEX enrichment z-score": -0.756}
{"sequence": "GGTATC", "6-mer SELEX enrichment z-score": -0.412}
{"sequence": "TGTGAG", "6-mer SELEX enrichment z-score": 0.021}
{"sequence": "TCCCGG", "6-mer SELEX enrichment z-score": -0.561}
